For 195 variants, enrichment ratio results are on record in a collection of fitness landscapes (doi:10.1126/science.1257360).

To fix the notation:
B1: PhoQ; a variant is named by its letters at X, in order, P23837 (parent)
chain: MKKLLRLFFPLSLRVRFLLATAAVVLVLSLAYGMVALIGYSVSFDKTTFRLLRGESNLFYTLAKWENNKLHVELPENIDKQSPTMTLIYDENGQLLWAQRDVPWLMKMIQPDWLKSNGFHEIEADVNDTSLLLSGDHSIQQQLQEVREDDDDAEMTHSVAVNVYPATSRMPKLTIVVVDTIPVELKSSYMVWSWFIYVLSANLLLVIPLLWVAAWWSLRPIEALAKEVRELEEHNRELLNPATTRELTSLVRNLNRLLKSERERYDKYRTTLTDLTHSLKTPLXXLQXXLRSLRSEKMSVSDAEPVMLEQISRISQQIGYYLHRASMRGGTLLSRELHPVAPLLDNLTSALNKVYQRKGVNISLDISPEISFVGEQNDFVEVMGNVLDNACKYCLEFVEISARQTDEHLYIVVEDDGPGIPLSKREVIFDRGQRVDTLRPGQGVGLAVAREITEQYEGKIVAGESMLGGARMEVIFGRQHSAPKDE

This is one part of the list.

The variants in the assay derive from B1. As to the kind of experiment: enrichment ratio after two sorts for PhoP signalling (ratio (wild type AVST 3.29)); higher = more functional. Conditions: with PhoP (E. coli).
On to YLSD, for which the enrichment ratio was not above 0.25.
The result for TMEC reads 11.9; that for LEVE, not above 0.25; that for DYLS, not above 0.25.
As to VRHI, the enrichment ratio is not above 0.25.
KAYA: the enrichment ratio is not above 0.25.
The result for MDSC reads not above 0.25; that for VDTI, not above 0.25.
The result for SHTN reads not above 0.25; that for PSPG, not above 0.25; that for MQVC, not above 0.25.
On to VAMF, for which the enrichment ratio was not above 0.25.
Turning to FFSK, the enrichment ratio is not above 0.25.
The result for PDHK reads not above 0.25; that for RLFP, not above 0.25.
The result for QFIL reads not above 0.25.
The result for KVQK reads not above 0.25.
Turning to MWQS, the enrichment ratio is not above 0.25.
The result for LKRQ reads not above 0.25.
The result for PMCW reads not above 0.25; that for WKMC, not above 0.25.
As to FGKF, the enrichment ratio was not above 0.25.
The result for ESHN reads not above 0.25.
The result for IISD reads not above 0.25; that for KSGL, not above 0.25; that for FRWE, not above 0.25.
The result for DVDG reads not above 0.25; that for FDCD, not above 0.25.
Turning to FQHH, the enrichment ratio was not above 0.25.
For MNWG, the enrichment ratio is 15.6.
Take FHAP: the enrichment ratio is not above 0.25.
The result for TDTV reads 2.99; that for IVKQ, not above 0.25; that for YQKI, not above 0.25.
The result for GYSE reads not above 0.25; that for ICHC, not above 0.25; that for YKHL, not above 0.25.
The result for EDYY reads not above 0.25; that for QVFT, not above 0.25; that for NRQT, not above 0.25.
As to PVRC, the enrichment ratio is not above 0.25.
The result for YAHG reads not above 0.25.
The result for RCWY reads not above 0.25; that for VLCS, not above 0.25.
The result for QRYG reads not above 0.25; that for WQWS, not above 0.25.
Take YCGQ: the enrichment ratio was not above 0.25.
The result for IRHN reads not above 0.25; that for ENNR, not above 0.25; that for KHLT, not above 0.25.
The result for AQES reads not above 0.25; that for HTFQ, not above 0.25; that for TWYV, not above 0.25.
The result for WRGF reads not above 0.25.
TMDQ: the enrichment ratio is not above 0.25.
The result for QKCP reads not above 0.25.
The result for PMQV reads not above 0.25; that for MAMS, not above 0.25; that for PWKM, not above 0.25.
The result for HPLN reads not above 0.25; that for NCKI, not above 0.25; that for PWTY, not above 0.25.
Turning to TWQI, the enrichment ratio was not above 0.25.
In the case of ICHF, the enrichment ratio was not above 0.25.
As for LNDF, the enrichment ratio was not above 0.25.
Regarding NQTI, the enrichment ratio was not above 0.25.
Take PYNR: the enrichment ratio was not above 0.25.
In the case of QGLQ, the enrichment ratio is not above 0.25.
For HKWW, the enrichment ratio is not above 0.25.
The result for VFEV reads not above 0.25; that for QGGY, 14.3; that for AWHT, not above 0.25.
The result for QMPS reads not above 0.25; that for YSGP, not above 0.25.
Take LTLG: the enrichment ratio was not above 0.25.
The result for KFCH reads not above 0.25; that for SMAI, 13.5; that for AKMI, 12.8.
The result for QTTE reads not above 0.25.
The result for YFKE reads not above 0.25.
Turning to YNMV, the enrichment ratio was found to be 0.274.
The result for ATVE reads not above 0.25; that for AMQM, not above 0.25.
On to KYVY, for which the enrichment ratio was not above 0.25.
The result for ETNV reads not above 0.25; that for TQSW, not above 0.25.
The result for RYIM reads not above 0.25; that for KALG, not above 0.25; that for DPLA, not above 0.25.
The result for MSPW reads not above 0.25.
Consider IIII, for which the enrichment ratio was not above 0.25.
The result for KYGY reads not above 0.25; that for SRIV, not above 0.25; that for IAVH, not above 0.25.
The result for LWHY reads not above 0.25; that for AKEC, not above 0.25.
The result for APSG reads not above 0.25; that for DMDA, not above 0.25; that for RRWH, not above 0.25.
KYKA: the enrichment ratio was not above 0.25.
The result for KNRD reads not above 0.25.
The result for TNCK reads not above 0.25.
The result for YHAL reads not above 0.25.
Regarding DGPS, the enrichment ratio was not above 0.25.
The result for IGNR reads not above 0.25.
Turning to VWVM, the enrichment ratio is not above 0.25.
The result for VMRY reads not above 0.25; that for WNCA, not above 0.25; that for RPGQ, not above 0.25.
The result for TNFE reads not above 0.25; that for ECFR, not above 0.25.
The result for GSNY reads not above 0.25; that for QFNA, not above 0.25; that for QATQ, not above 0.25.
As to WFKG, the enrichment ratio was not above 0.25.
The result for GSWM reads not above 0.25.
The result for EHQA reads not above 0.25.
The result for SPST reads not above 0.25; that for STLS, 11.1; that for PNPE, not above 0.25.
Take WWLR: the enrichment ratio was not above 0.25.
Regarding RDHW, the enrichment ratio is not above 0.25.
The result for DMSR reads not above 0.25; that for FVNF, not above 0.25; that for FPPG, not above 0.25.
The result for ATTV reads 6.52; that for MKAL, 4.45.
The result for YYDD reads not above 0.25; that for LYLC, not above 0.25; that for TNLV, 5.2.
As for AFSP, the enrichment ratio is not above 0.25.
The result for HCLL reads 3.34; that for IIHI, not above 0.25.
With GKEA, the enrichment ratio is not above 0.25.
Take NHHN: the enrichment ratio was not above 0.25.
For STFC, the enrichment ratio is not above 0.25.
For RTCA, the enrichment ratio is not above 0.25.
On to RQGP, for which the enrichment ratio is not above 0.25.
In the case of YDGI, the enrichment ratio is not above 0.25.
On to AWQC, for which the enrichment ratio is not above 0.25.
In the case of YHWM, the enrichment ratio was not above 0.25.
The result for TTHV reads 14.6; that for VIPC, not above 0.25; that for FIKG, not above 0.25.
Regarding LHVD, the enrichment ratio was not above 0.25.
The result for IWST reads not above 0.25; that for MMCA, not above 0.25; that for FWTT, not above 0.25.
The result for EIIH reads not above 0.25.
The result for GWYT reads not above 0.25; that for YFTC, not above 0.25.
Regarding GVAM, the enrichment ratio is 15.2.
The result for LLDR reads not above 0.25; that for NTFL, not above 0.25; that for PMDE, not above 0.25.
The result for TFVA reads not above 0.25.
For the variant APSY, the enrichment ratio is not above 0.25.
For DDLA, the enrichment ratio is not above 0.25.
The result for LDWY reads not above 0.25; that for KIII, not above 0.25.
The result for SILK reads 4.02.
The result for NALA reads not above 0.25; that for DVWR, not above 0.25.
Consider PKGV, for which the enrichment ratio is not above 0.25.
As for TPYD, the enrichment ratio was not above 0.25.
As to QDHN, the enrichment ratio is not above 0.25.
The result for RSGR reads not above 0.25.
The result for RAEC reads not above 0.25.
With TIIN, the enrichment ratio was not above 0.25.
The result for HNFT reads not above 0.25; that for LPTL, not above 0.25.
The result for IKIG reads not above 0.25; that for MSCM, 3.66.
The result for NNVD reads not above 0.25; that for TSAP, not above 0.25; that for FFDN, not above 0.25.
On to QNCS, for which the enrichment ratio is not above 0.25.
As for NTWH, the enrichment ratio is not above 0.25.
Turning to WSKG, the enrichment ratio was not above 0.25.
For QMKQ, the enrichment ratio was not above 0.25.
Consider PFSI, for which the enrichment ratio is not above 0.25.
The result for ANIG reads 29.2; that for AYDL, not above 0.25; that for VSTV, 5.28.
The result for NRSI reads not above 0.25; that for WRTR, not above 0.25; that for QITT, not above 0.25.
For the variant VVPC, the enrichment ratio was not above 0.25.
As for NAML, the enrichment ratio is not above 0.25.
The result for LIYV reads not above 0.25; that for WLLD, not above 0.25.
With NQHH, the enrichment ratio is not above 0.25.
The result for KTMI reads not above 0.25; that for EWAP, not above 0.25.
The result for SWLQ reads not above 0.25.
